# Source: article PMC6664820, “Novel natural and synthetic inhibitors of solute carriers SGLT1 and SGLT2” (Pharmacology Research & Perspectives, 2019)
# Among all 1,900 compounds or so, about 40 (2%) showed an effect of 50% or more. Some of the results follow.
# Target: human SGLT1 (hSGLT1) (human, UniProt P13866)
# Assay: primary screen, percent of control activity; higher = less effect of the substance
# Set-up: single well
# Details: 50 µM
# Outline: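 Single-point screen at 50 µmol/L in CHO-hSGLT1 cells, with 160 µmol/L 1-NBD-glucose in glucose-free DMEM for 90 min at 37°C. Fluorescence from isopropanol extracts was calibrated, and CHO wild-type uptake was subtracted. Data are percent of uptake without compound.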
# Chain of human SGLT1 (hSGLT1) (P13866 whole entry, looked up): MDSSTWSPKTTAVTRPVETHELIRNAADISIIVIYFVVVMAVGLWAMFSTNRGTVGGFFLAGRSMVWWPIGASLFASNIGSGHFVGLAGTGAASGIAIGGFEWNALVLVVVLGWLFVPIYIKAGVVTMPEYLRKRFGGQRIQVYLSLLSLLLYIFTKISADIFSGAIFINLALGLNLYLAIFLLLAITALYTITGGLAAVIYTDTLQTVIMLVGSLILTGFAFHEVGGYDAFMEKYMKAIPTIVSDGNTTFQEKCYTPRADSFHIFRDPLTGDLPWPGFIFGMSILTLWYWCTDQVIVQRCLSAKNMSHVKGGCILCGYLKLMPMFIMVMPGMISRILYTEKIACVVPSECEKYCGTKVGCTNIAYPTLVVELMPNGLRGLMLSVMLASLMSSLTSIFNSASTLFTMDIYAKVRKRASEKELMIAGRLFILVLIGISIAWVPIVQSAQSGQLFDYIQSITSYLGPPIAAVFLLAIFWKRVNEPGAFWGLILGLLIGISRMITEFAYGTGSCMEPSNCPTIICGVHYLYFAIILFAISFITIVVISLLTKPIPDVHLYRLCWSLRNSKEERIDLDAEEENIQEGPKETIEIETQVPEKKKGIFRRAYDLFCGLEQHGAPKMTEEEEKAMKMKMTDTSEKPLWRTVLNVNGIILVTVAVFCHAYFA
row,Compound,NORMALIZED SGLT1 ACTIVITY (%)
1,Cc1c(O)c(C(=O)CC(C)C)c2oc3c(C(=O)CC(C)C)c(O)c(C)c(O)c3c2c1O,107
2,O=c1c(-c2ccccc2)coc2cc(O)cc(O)c12,167
3,CC[N+](C)(C)c1cccc(O)c1.[Cl-],94
4,CCCC(CCC)C(=O)[O-].[Na+],105
5,CCNc1nc(Cl)nc(NCC)n1,113
6,COC(=O)C[C@H]1C(C)(C)C(=O)[C@@H]2CC3=C(CC[C@]4(C)C3=CC(=O)O[C@H]4c3ccoc3)[C@@]1(C)C2=O,164
7,C=C1CC[C@H](O)C/C1=C/C=C1\CCC[C@]2(C)[C@@H]([C@H](C)/C=C/[C@H](C)C(C)C)CC[C@@H]12,143
8,COC(=O)C1[C@H]2C[C@H]3c4[nH]c5ccccc5c4CCN3C[C@@H]2CC[C@@H]1O.Cl (some centres unmarked),120
9,C=C1C(=O)O[C@H]2[C@H]1CC/C(C)=C/CC[C@@]1(C)O[C@@H]21,104
10,COc1cccc(O)c1O,97
11,COc1ccc2c(c1OC)C(=O)O[C@H]2[C@H]1c2cc3c(cc2CCN1C)OCO3,111
12,CN(C)CCC=C1c2ccccc2CCc2ccccc21.Cl,59
13,CC(CCC(=O)O)[C@H]1CCC2C3C(=O)C[C@@H]4CC(=O)CC[C@]4(C)C3CC(=O)[C@@]21C (some centres unmarked),115
14,CCCCC1(COC(=O)CCC(=O)O)C(=O)N(c2ccccc2)N(c2ccccc2)C1=O,126
15,CCN(CC)CCNc1ccc(CO)c2sc3ccccc3c(=O)c12,184
16,CCOC(=O)[N-]c1c[n+](N2CCOCC2)no1,113
17,CC(C)CCCC(C)C1CCC2C3CC[C@H]4CC(=O)CC[C@]4(C)C3CC[C@]12C (some centres unmarked),90
18,c1ccc2[nH]c(-c3cscn3)nc2c1,210
19,C=C(CC)C(=O)c1ccc(OCC(=O)O)c(Cl)c1Cl,88
20,CO[C@]12C[C@@H](COC(=O)c3cncc(Br)c3)CN(C)[C@@H]1Cc1cn(C)c3cccc2c13,187
21,Nc1cc(-c2ccncc2)c[nH]c1=O,192
22,O=C(NC(=O)c1c(F)cccc1F)Nc1cc(Cl)c(OC(F)(F)C(F)C(F)(F)F)cc1Cl (centres unmarked),134
23,C#C[C@]1(O)CC[C@H]2[C@@H]3CCC4=Cc5oncc5C[C@]4(C)[C@H]3CC[C@@]21C,89
24,CC[C@@]1(O)C(=O)OCc2c1cc1n(c2=O)Cc2cc3ccccc3nc2-1,276
25,CC(=O)Oc1ccc2c(c1)CCC1C2CC[C@@]2(C)C1CC[C@@H]2OC(C)=O (some centres unmarked),139
26,CCOc1ccc2c(c1)C(C)=CC(C)(C)N2,92
